Results taken from article PMC12435690, “KYLO-0603, a novel liver-targeting, thyroid hormone receptor-β agonist for the inhibition of MASH progression” (PLOS One, 2025).

Experiments:
[1] = [14C] Kylo-0603 excretion and tissue distribution in SD rats; format: in vivo; conditions: for Total Radioactivity, Fat / Total Radioactivity, Heart / Total Radioactivity, Kidney / Total Radioactivity, Liver / Total Radioactivity, Lung / Total Radioactivity, Skeletal Muscle / Total Radioactivity, Spleen / Total Radioactivity, Thymus / Total Radioactivity, Thyroid Gland / Total Radioactivity, Whole Brain: single oral 12.5 mg/kg [14C]
Method: Supplementary file pone.0331768.s021.docx: S4 Table Tissue distribution of Kylo-0603. The detailed experimental design and results are as follows: After a single oral administration of 12.5 mg/200 μCi/kg [^14C] Kylo-0603 to SD rats (n = 6, 3 males and 3 females per group), the compound in tissues were detected by semi-quantitive radioactivities from 0 to 168 hours. […] For the tissue distribution study, the same dosing regimen was used to measure the amount of radioactivity in various tissues at 0.083, 0.25, 1, 4 and 24 hours (n = 6; three females and three males at each time point). […] Very low levels were found in the spleen, kidney, lung and adipose tissue. Concentrations in bone, the thyroid gland, the thymus gland, the heart, skeletal muscle and the whole brain were all below the limit of detection. […] (DOCX)

human THR-α = target: T1, human THR-α (Homo sapiens, UniProt P10827); assay: LanthaScreen TR-FRET THRα coactivator assay; format: biochemical
T1 construct: purchased Thermo Fisher Scientific PV4687
Method: (§1) In conducting experiments to ascertain the agonist effects of compounds on human THR-α or THR-β, the following equipment and reagents were utilized: The experimental apparatus comprised an Envision instrument (provided by PerkinElmer, model Envision 2014) and an Echo 500 instrument from Labcyte, USA. The experimental reagents used were the LanthaScreen™ TR-FRET THRα/THRβ Coactivator Detection Kit (model PV4687) from Thermo Fisher Scientific. […] Subsequently, 100 nL of the diluted compounds were transferred to a 384-well experimental plate (384 Optiplate), with one compound well designated for each concentration. The experimental procedure was conducted by the instructions provided in the LanthaScreen™ TR-FRET TRα/TRβ Coactivator Assay Kit. To ensure the accuracy and reliability of the data, each experiment was repeated three times. EC50 values were determined by using GraphPad Prism 8.5 (the Dose-response-Stimulation-log[effect] vs. response--Variable slope). Finally, to assess the selectivity of the compounds, we calculated the selectivity multiplicity.

human THR-β = target: T2, human THR-β (Homo sapiens, UniProt P10828); assay: LanthaScreen TR-FRET THRβ coactivator assay; format: biochemical; conditions: normalized for the relative selectivity of T3
T2 construct: purchased Thermo Fisher Scientific PV4687
Method: as §1

[2] = PK study: plasma and liver concentrations after PO dosing in rats; conditions: single dose 7.03 mg/kg PO, fasted male SD rats, 0.25 h
[3] = single oral 12.5 mg/200 μCi/kg [14C] Kylo-0603, 0 to 168 hours

CC(=O)N[C@H]1[C@H](OCCCCCCNC(=O)CCOCC(COCCC(=O)NCCCCCCO[C@@H]2O[C@H](CO)[C@H](O)[C@H](O)[C@H]2NC(C)=O)(COCCC(=O)NCCCCCCO[C@@H]2O[C@H](CO)[C@H](O)[C@H](O)[C@H]2NC(C)=O)NC(=O)CCCCCNC(=O)COc2cc(C)c(Cc3ccc(O)c(C(C)C)c3)c(C)c2)O[C@H](CO)[C@H](O)[C@@H]1O [Kylo-0603]
Total Radioactivity, Fat ([1]; 0.083 h): BLQ | Total Radioactivity, Heart ([1]; 0.083 h): BLQ | Total Radioactivity, Kidney ([1]; 0.083 h): BLQ | Total Radioactivity, Liver ([1]; 0.083 h): BLQ | Total Radioactivity, Lung ([1]; 0.083 h): 23.91±3.5 ngEq/g | Total Radioactivity, Skeletal Muscle ([1]; 0.083 h): BLQ | Total Radioactivity, Spleen ([1]; 0.083 h): BLQ | Total Radioactivity, Thymus ([1]; 0.083 h): BLQ | Total Radioactivity, Thyroid Gland ([1]; 0.083 h): BLQ | Total Radioactivity, Whole Brain ([1]; 0.083 h): BLQ | Total Radioactivity, Fat ([1]; 0.25h): 3.49±4.7 ngEq/g | Total Radioactivity, Heart ([1]; 0.25h): BLQ | Total Radioactivity, Kidney ([1]; 0.25h): BLQ | Total Radioactivity, Liver ([1]; 0.25h): 141±50.5 ngEq/g | Total Radioactivity, Lung ([1]; 0.25h): BLQ | Total Radioactivity, Skeletal Muscle ([1]; 0.25h): BLQ | Total Radioactivity, Spleen ([1]; 0.25h): 20.5±3.07 ngEq/g | Total Radioactivity, Thymus ([1]; 0.25h): BLQ | Total Radioactivity, Thyroid Gland ([1]; 0.25h): BLQ | Total Radioactivity, Whole Brain ([1]; 0.25h): BLQ | Total Radioactivity, Fat ([1]; 1h): 2.41±2.3 ngEq/g | Total Radioactivity, Heart ([1]; 1h): BLQ | Total Radioactivity, Liver ([1]; 1h): 413±24.8 ngEq/g | Total Radioactivity, Lung ([1]; 1h): BLQ | Total Radioactivity, Skeletal Muscle ([1]; 1h): BLQ | Total Radioactivity, Spleen ([1]; 1h): 41.2±1.89 ngEq/g | Total Radioactivity, Thymus ([1]; 1h): BLQ | Total Radioactivity, Thyroid Gland ([1]; 1h): BLQ | Total Radioactivity, Whole Brain ([1]; 1h): BLQ | Total Radioactivity, Fat ([1]; 4h): BLQ | Total Radioactivity, Heart ([1]; 4h): BLQ | Total Radioactivity, Kidney ([1]; 4h): BLQ | Total Radioactivity, Liver ([1]; 4h): BLQ | Total Radioactivity, Lung ([1]; 4h): BLQ | Total Radioactivity, Skeletal Muscle ([1]; 4h): BLQ | Total Radioactivity, Spleen ([1]; 4h): BLQ | Total Radioactivity, Thymus ([1]; 4h): BLQ | Total Radioactivity, Thyroid Gland ([1]; 4h): BLQ | Total Radioactivity, Whole Brain ([1]; 4h): BLQ | Total Radioactivity, Fat ([1]; 8h): BLQ | Total Radioactivity, Heart ([1]; 8h): BLQ | Total Radioactivity, Kidney ([1]; 8h): BLQ | Total Radioactivity, Liver ([1]; 8h): BLQ | Total Radioactivity, Lung ([1]; 8h): BLQ | Total Radioactivity, Skeletal Muscle ([1]; 8h): BLQ | Total Radioactivity, Spleen ([1]; 8h): BLQ | Total Radioactivity, Thymus ([1]; 8h): BLQ | Total Radioactivity, Thyroid Gland ([1]; 8h): BLQ | Total Radioactivity, Whole Brain ([1]; 8h): BLQ | Total Radioactivity, Fat ([1]; 24h): BLQ | Total Radioactivity, Heart ([1]; 24h): BLQ | Total Radioactivity, Kidney ([1]; 24h): BLQ | Total Radioactivity, Liver ([1]; 24h): BLQ | Total Radioactivity, Lung ([1]; 24h): BLQ | Total Radioactivity, Skeletal Muscle ([1]; 24h): BLQ | Total Radioactivity, Spleen ([1]; 24h): BLQ | Total Radioactivity, Thymus ([1]; 24h): BLQ | Total Radioactivity, Thyroid Gland ([1]; 24h): BLQ | Total Radioactivity, Whole Brain ([1]; 24h): BLQ | radioactivity excreted in urine [1, 3]: 0.05% | radioactivity excreted via feces [1, 3]: 94.2% | EC50 (human THR-α): 124 ± 13.9 nM | relative selectivity for THR-β over THR-α (human THR-β): 8.2 fold | liver concentration [2]: 66167 pg/g | plasma concentration [2]: 0.0128 ng/mL
